Here are results for 22 molecules from PMC12136788.

The other results are listed elsewhere or left out.

First the molecules themselves.
T1: UNK ZnF1-3 (human, UniProt Q9C0B0 31-174)
T1 sequence: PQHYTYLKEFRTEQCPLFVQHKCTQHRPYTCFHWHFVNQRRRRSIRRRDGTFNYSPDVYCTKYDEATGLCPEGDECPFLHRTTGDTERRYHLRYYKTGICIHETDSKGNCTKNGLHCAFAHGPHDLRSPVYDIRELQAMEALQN

B1: chr1:193038565:193038566:+_ENSG00000116747_ENST00000367444|hu_hu|FALSE|FALSE (ssRNA)
RNA: GGGAGUUCUACAGUCCGACGAUCACGACCCCACAUGCCACAUUUCAUGCUUUCCUUCAGAUCUUUCUUAAACUGGAUAAAAGUAAAGAGAUGGGUAGGAAUGCGACAAACUUCAGAAACAGCUUUAAAUGCUGCUUGUUUUGUCAACAGAGGAUUGAGCAUCA
B2: chr2:112102183:112102184:+_ENSMUSG00000027133_ENSMUST00000028553|mus_hu|FALSE|FALSE (ssRNA)
RNA: GGGAGUUCUACAGUCCGACGAUCCGUUGAGGUAAUACUGGAGAAACAUGAUCGCUUAUAAGCCAGCGGUCCCAAUUCGGUCCACCGCUCAGUCUGCAGUGGUCCGCCCGACCGCGUCACGUGUUCGUCAAUUUCCUUCCUGCACAACAGAGGAUUGAGCAUCA
B3: 112608469_112614408_2246_CDS_ENSG00000153107_ENST00000341068|human|control|control (ssRNA)
RNA: GGGAGUUCUACAGUCCGACGAUCAAUAAAAACCUUUCCCACCCGAACCACUCCUGUGUAUAGCACCAGGUUUCCACUGCCUUCCAAGACCAGCAUGGUGUCUAUUUUCUCCACUGGUGCUGCAUCCUUUGCUGGUAUGUUGGUCAACAGAGGAUUGAGCAUCA
B4: chr2:9570881:9570882:+_ENSG00000119203_ENST00000238112|hu_mus|FALSE|FALSE (ssRNA)
RNA: GGGAGUUCUACAGUCCGACGAUCACUUGUCUUCUGAAGGAACCAGGGCAGGGCUCCACAGUGAUCCAAAUGGAAAUGACUGAUCAACAGAAGGUCGAUCUCAGCUGGGUCGAUAAGGUCAAUGUAAGGAAGGGCAUCCAUUCCCAACAGAGGAUUGAGCAUCA
B5: chr2:5814250:5814251:-_ENSMUSG00000025816_ENSMUST00000102981|mus_hu|mus_mus_mus_hu_True|18_18 (ssRNA)
RNA: GGGAGUUCUACAGUCCGACGAUCUUCCUUUCCGGUUUCUGAAUUUCUGGUAGAACUGCACAGAAUGGUUUGAUAACUUCUAAAAAUUUGAUGCCCAUGGCUGCUGCUGGGGAGGCCCGGCGGGCACCCGCGGCCUCGGCGCUGCAACAGAGGAUUGAGCAUCA
B6: chr10:36853155:36853156:-_ENSMUSG00000069662_ENSMUST00000092584|mus_hu|FALSE|FALSE (ssRNA)
RNA: GGGAGUUCUACAGUCCGACGAUCAUAACCCAGAGGAAGUAUUUUGUAACCACAGCAAAUGCCAUUAUACAUACUGCCAAUACAGAUUUAAUAGACAAUACUGAACUGUACAAGAGUUAUUUAUUUUUCCUUAAUCUCAAAGCUCAACAGAGGAUUGAGCAUCA
B7: 26887325_26887445_518_CDS_ENSG00000120159_ENST00000333916|human|control|control (ssRNA)
RNA: GGGAGUUCUACAGUCCGACGAUCAAGCAUCUUCUGUAACUUUUUCUCUCCUAUAAUACAGAAGCACUGCUGAAGCAUUUCUUUUUUGUCUGAUAUAUAGAAACUAACUGGUUUCAAUGACACAGUCAGGUCCAGUCCACCUUCCAACAGAGGAUUGAGCAUCA
B8: chr1:243289802:243289803:-_ENSG00000143702_ENST00000366542|hu_hu|motif|central (ssRNA)
RNA: GGGAGUUCUACAGUCCGACGAUCAAGAGAAAGUCAUUCUUGUACUGUAACAUCUUCCUCUUCCCCAUCGGGGUUGAAUCGGUUGAAAUGUAUACUGAAAUCAGCCUCAGAUUCAGCAUUCUCAAAUUCAGCUGCGGCUGAAACCAACAGAGGAUUGAGCAUCA
B9: chr4:59614313:59614314:+_ENSMUSG00000028383_ENSMUST00000030078|mus_hu|FALSE|FALSE (ssRNA)
RNA: GGGAGUUCUACAGUCCGACGAUCGUUGCCAGUAAAACUUUUUGGCUUUUGGAAAAUGGAAUAUGCUGCAUCUGCAAUGAUAUCAACUUUUCUACACUGGCUUUCGAUACCAGGUCCUCCCAGCAUAUCCAUAGCAGCAGUGUGCAACAGAGGAUUGAGCAUCA
B10: chr7:112959530:112959531:-_ENSMUSG00000030879_ENSMUST00000124482|mus_mus|FALSE|FALSE (ssRNA)
RNA: GGGAGUUCUACAGUCCGACGAUCGGCAGCCAGCGACAACCUCAUGCUCUCACCUCAGCCCCUCCUCUCGGGGGCCCGGAAAGGGAAACUCCGAGCUGUGUGUGCGCGCGCGGGGAGAGGGGGAGCAGAGGGGCGGAGGCACGUCAACAGAGGAUUGAGCAUCA
B11: chr5:79734569:79734570:+_ENSG00000039319_ENST00000505560|hu_hu|FALSE|FALSE (ssRNA)
RNA: GGGAGUUCUACAGUCCGACGAUCACUUUCUAUAUCAAUGUAAUUAGAGUUGAAGCUAACCUGUGGAUCAGCUGUAGAAUCUAUAGCACAAGUGAUUGGAACAACGGUAUCUGCUGUGCUGGGUUCACUUUCUAUUGUAUCUGGCAACAGAGGAUUGAGCAUCA
B12: chr1:25124269:25124270:+_ENSG00000169504_ENST00000374379|hu_hu|motif|central (ssRNA)
RNA: GGGAGUUCUACAGUCCGACGAUCUACAACUCCUUUGAGCCAAAGAAUCAUGAAGAGCCUCUGGGAAAAGGGGCAGUUUCCGGUGCUUUCACCAUCACUGCCAGCCUUGACGAAGAGCUCGAUGAGGGGCUCUUUGUCCUCCUCCAACAGAGGAUUGAGCAUCA
B13: 63429841_63574422_457_ncRNA_ENSMUSG00000023965_ENSMUST00000169134|mouse|control|control (ssRNA)
RNA: GGGAGUUCUACAGUCCGACGAUCUGUGAUUUCUUUACACCAUCCGACGUCCACAGUCUCUAUGGUCACGCUGUAUCGCCCAAUGGCUAUCAGUGCAUAAUCAGUGAUCUUACAGGACACCAGGUACAGCUCUUUCAGGUUCUGCAACAGAGGAUUGAGCAUCA
B14: chr1:55207850:55207851:+_ENSMUSG00000025979_ENSMUST00000162364|mus_mus|FALSE|FALSE (ssRNA)
RNA: GGGAGUUCUACAGUCCGACGAUCCCGGUGAUGAAAAUAGGCAUGUGAAAAUAUUCUAUAAAUCCUACGGCACACUGAUCCUAGUUUUGCUACAGAUGAUUCUUUUAUGCUAACCCUGCUGGGAAAAUAUUUAUUGCUAUUCAGCAACAGAGGAUUGAGCAUCA
B15: chr12:97337435:97337436:+_ENSG00000139350_ENST00000266742|hu_mus|FALSE|FALSE (ssRNA)
RNA: GGGAGUUCUACAGUCCGACGAUCAGACUCAGCUGACGGCUCAUGGCUUUCAUUCUCUUCUUUCCCUGAAGAUCCCAUGAGGACAUUAAGAGGGCUGGAGUGCAGCACCAGACUGCUGGAGGCACCUGCAUUCUUCCUCAGAGGCAACAGAGGAUUGAGCAUCA
B16: chr6:114281168:114281169:-_ENSG00000196591_ENST00000368632|hu_hu|hu_hu_hu_mus_True|1_88 (ssRNA)
RNA: GGGAGUUCUACAGUCCGACGAUCUUCCAUUUUUCGGUAUAAACCAUAAUUUAACAGCAAGUUAUGAGUCAUCCGGAUUCUAUGAGGCUUCAUGGGAUGACCCUGGCCAUAAUAAUAAUUGCCAAUAUCACCAUCAUACUAGAACAACAGAGGAUUGAGCAUCA
B17: chr1:43162399:43162400:+_ENSG00000065978_ENST00000321358|hu_mus|motif|central (ssRNA)
RNA: GGGAGUUCUACAGUCCGACGAUCAUUCUGGUAAUUUUGCUGGUAAUUGCGUGGAGGACCCCUACGACGUGGAUAGCGUCGGUAAUGGUUACGGUCUGCUGCGUAUUUACUGCCUUGAACUGGAACUCCACCAGGGCCUGUAACCAACAGAGGAUUGAGCAUCA
B18: chr7:5108331:5108332:+_ENSG00000146587_ENST00000396912|hu_hu|FALSE|FALSE (ssRNA)
RNA: GGGAGUUCUACAGUCCGACGAUCUUGCACAUGUGCCUUAAGAUAGUUCUGUUUUGUGCAGUUUUAGGCUAUAAAUAUUCUAGUGCAUGUCCUUUGGUGGACAGACACAUGCAUUUUUGCUGGGUUUGGGUAAAACAGUAUACACAACAGAGGAUUGAGCAUCA
B19: chr5:37680062:37680063:+_ENSMUSG00000029121_ENSMUST00000031004|mus_hu|mus_mus_mus_hu_False|1_58 (ssRNA)
RNA: GGGAGUUCUACAGUCCGACGAUCUUUGGGUGUAGCUGGUACCUCGUACACAGGACCGUCAUACAUGCCCCUGGAAACACUAUGCAAUCCAAAAACCUUAUUCCUGAUUUUGACGCGCUGGUACAGGUGCUCCGGGAAUGGCUUCAACAGAGGAUUGAGCAUCA
B20: chr4:148702617:148702618:-_ENSMUSG00000028960_ENSMUST00000103212|mus_mus|FALSE|FALSE (ssRNA)
RNA: GGGAGUUCUACAGUCCGACGAUCGUUGGGAACUGAACAGAGCACAGGCUGUGGAGCAGAGGAGAAAGGAAAAGAGGAGGAAGUCUGUUUCUGAAGAGUUCAUUUCUUUAAAACACUUUAUGGUUUCAAAUCCUUUCUCACCCCCAACAGAGGAUUGAGCAUCA
B21: chr2:216981417:216981418:+_ENSG00000079246_ENST00000392132|hu_hu|hu_hu_hu_mus_True|58_58 (ssRNA)
RNA: GGGAGUUCUACAGUCCGACGAUCCUGAUACUGGUCCUUGCCAGCAAGGGCAUUAUCAGUGCCAUCUGUGCCAUAGAGGACUAAAGCAAUCUCAUCUUUGCUCUCCGAAAAUACCUGUCGUUGGACAAACAUAGUCAUCACUUUCAACAGAGGAUUGAGCAUCA
B22: chr4:42003652:42003653:+_ENSG00000014824_ENST00000513699|hu_hu|motif|central (ssRNA)
RNA: GGGAGUUCUACAGUCCGACGAUCGGUACCAAUAUAUGGAUGACUACAGGGAACCAUGUUUGAAAAGCUUCCAAAUGUCACGGAAUUCUGCCACUCCUGGCGGUCGCUGGGAUUACAGGCCGCCGCCCUGCAUCGCAGACGGAGCAACAGAGGAUUGAGCAUCA

The target in the experiment is T1, UNK ZnF1-3. The experiment in a line: nsRBNS (natural sequence RNA bind-n-seq); RBNS binding buffer (assumed for nsRBNS): 25 mM Tris pH 7.5, 150 mM KCl, 3 mM MgCl2, 0.01% Triton X-100, 500 ug/ml BSA, 20 U/ml SUPERase-In, 4 C; UNK is unkempt and MSI1 is Musashi-1; names of the RNAs are library labels; protein concentration not given here; high values mean tight binding.
On to B1, for which the binding signal is 0.968 enrichment R.
Regarding B2, the binding signal is 0.574 enrichment R.
For the molecule B3, the binding signal is 1.01 enrichment R.
The molecule B4 came in with a binding signal of 1.29 enrichment R.
The molecule B5 returned a binding signal of 1.32 enrichment R.
Regarding B6, the binding signal was 0.933 enrichment R.
With B7 the figure was 0.983 enrichment R; with B8, 0.45 enrichment R; with B9, 0.79 enrichment R.
With B10 the figure was 0.403 enrichment R; with B11, 1.02 enrichment R.
B12 came in with a binding signal of 0.448 enrichment R.
For the molecule B13, the binding signal turned out to be 0.667 enrichment R.
In turn, B14 yielded a binding signal of 1.24 enrichment R.
B15 registered a binding signal of 0.808 enrichment R.
In the case of B16, the binding signal turned out to be 0.752 enrichment R.
The molecule B17 had a binding signal of 0.55 enrichment R.
On to B18, for which the binding signal is 0.692 enrichment R.
Molecule B19 yielded a binding signal of 0.626 enrichment R.
Consider B20, for which the binding signal was 1.44 enrichment R.
With B21 the figure was 0.747 enrichment R.
Turning to B22, the binding signal came out at 1.6 enrichment R.
